The supplement of paper PMC11741623
The other results are listed elsewhere or left out. Interaction screen of human proteins with wild-type SARS-CoV-2 proteins by split-DHFR complementation in yeast, 1 µg/mL methotrexate. Value = fitness of the pair (three or more lineages) minus that of the viral protein without a human partner, on a scale set by negative (0) and fused positive (1) controls, mean of up to three cultures; higher = more likely to interact. Active = false discovery rate below 0.05 (one-sided t-test) in at least one culture. Nearly all pairs are not hits, and differences among them are mostly noise (correlation between cultures about 0.3); most hits were seen in one culture only. Human sequences are the Swiss-Prot entries looked up by gene name; the clone may be another isoform. NSP2 values were corrected by the authors for a growth advantage. Listed are human proteins with a hit and a random twelfth of the others.

How the values were obtained:
Assay in all cases: yeast fitness gain over the viral ORF with no human partner (scaled fitness); higher = more likely to interact
SARS-CoV-2 M = target: SARS-CoV-2 M
Procedure: (§1)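 Split mouse DHFR complementation in pooled diploid yeast: human ORFeome clones carry one fragment and viral ORFs the other; barcoded lineages compete in 1 µg/mL methotrexate and fitness is read by barcode sequencing in up to three cultures.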

SARS-CoV-2 NSP1 = target: SARS-CoV-2 NSP1
Procedure: as §1

SARS-CoV-2 NSP10 = target: SARS-CoV-2 NSP10
Procedure: as §1

SARS-CoV-2 NSP12 = target: SARS-CoV-2 NSP12
Procedure: as §1

SARS-CoV-2 NSP13 = target: SARS-CoV-2 NSP13
Procedure: as §1

SARS-CoV-2 NSP16 = target: SARS-CoV-2 NSP16
Procedure: as §1

SARS-CoV-2 NSP2 = target: SARS-CoV-2 NSP2
Procedure: as §1

SARS-CoV-2 NSP5 = target: SARS-CoV-2 NSP5
Procedure: as §1

SARS-CoV-2 NSP6 = target: SARS-CoV-2 NSP6
Procedure: as §1

SARS-CoV-2 NSP7 = target: SARS-CoV-2 NSP7
Procedure: as §1

SARS-CoV-2 NSP8 = target: SARS-CoV-2 NSP8
Procedure: as §1

SARS-CoV-2 ORF10 = target: SARS-CoV-2 ORF10
Procedure: as §1

SARS-CoV-2 ORF3A = target: SARS-CoV-2 ORF3A
Procedure: as §1

SARS-CoV-2 ORF3B = target: SARS-CoV-2 ORF3B
Procedure: as §1

SARS-CoV-2 ORF6 = target: SARS-CoV-2 ORF6
Procedure: as §1

SARS-CoV-2 ORF7A = target: SARS-CoV-2 ORF7A
Procedure: as §1

SARS-CoV-2 ORF7B = target: SARS-CoV-2 ORF7B
Procedure: as §1

SARS-CoV-2 ORF8 = target: SARS-CoV-2 ORF8
Procedure: as §1

SARS-CoV-2 ORF9B = target: SARS-CoV-2 ORF9B
Procedure: as §1

[1] = target: SARS-CoV-2 ORF9Bwu (the 73-codon ORF)
Procedure: as §1

SARS-CoV-2 S = target: SARS-CoV-2 S
Procedure: as §1

SARS-CoV-2 NSP14 = target: SARS-CoV-2 NSP14
Procedure: as §1

SARS-CoV-2 NSP15 = target: SARS-CoV-2 NSP15
Procedure: as §1

SARS-CoV-2 NSP9 = target: SARS-CoV-2 NSP9
Procedure: as §1

SARS-CoV-2 NSP4 = target: SARS-CoV-2 NSP4
Procedure: as §1

SARS-CoV-2 N = target: SARS-CoV-2 N
Procedure: as §1

Measured: yeast fitness gain

B1: FAM204A, Q9H8W3 (protein)
chain: MWSGLLPPGLNESDAESNSEDEATLENSGLNLQEDKEDESIRKTEIIDFSTDEPKTETESNVNAYEECPSGIPIDMWNKFQELHKKHSEQKSTTSRFRGKRRKRSRKDKLKNEKELHSEPSSNETQWKELTQYFGVNDRFDPPVKRKKVEKSGLEKRIDQAVEEWNIEKAEELSNQLATRELGVKIAKAVACHNFVKAKKEVENSQAARKKKKLAWGFEAKKRWETKSNMGYM
inactive: SARS-CoV-2 M 0.0539 | SARS-CoV-2 NSP1 = -0.0689 | SARS-CoV-2 NSP10 = -0.0218 | SARS-CoV-2 NSP12 = 0.0154 | SARS-CoV-2 NSP13 = -0.0169 | SARS-CoV-2 NSP16 = 0.00535 | SARS-CoV-2 NSP2 = -0.166 | SARS-CoV-2 NSP5 = -0.103 | SARS-CoV-2 NSP6 = 0.0638 | SARS-CoV-2 NSP7 = 0.0537 | SARS-CoV-2 NSP8 = -0.00826 | SARS-CoV-2 ORF10 = -0.0203 | SARS-CoV-2 ORF3A -0.0718 | SARS-CoV-2 ORF3B 0.0316 | SARS-CoV-2 ORF6 = -0.0142 | SARS-CoV-2 ORF7A 0.00459 | SARS-CoV-2 ORF7B -0.212 | SARS-CoV-2 ORF8 = 0.00846 | SARS-CoV-2 ORF9B -0.0624 | [1] -0.0273 | SARS-CoV-2 S -0.00615

B2: KCNK16, Q96T55 (protein)
chain: MPSAGLCSCWGGRVLPLLLAYVCYLLLGATIFQLLERQAEAQSRDQFQLEKLRFLENYTCLDQWAMEQFVQVIMEAWVKGVNPKGNSTNPSNWDFGSSFFFAGTVVTTIGYGNLAPSTEAGQVFCVFYALLGIPLNVIFLNHLGTGLRAHLAAIERWEDRPRRSQVLQVLGLALFLTLGTLVILIFPPMVFSHVEGWSFSEGFYFAFITLSTIGFGDYVVGTDPSKHYISVYRSLAAIWILLGLAWLALILPLGPLLLHRCCQLWLLSLRQGCGAKAAPGRRPRRGSTAARGVQVTPQDFPISKKGLGS
inactive: SARS-CoV-2 M 0.0744 | SARS-CoV-2 NSP1 = -0.0423 | SARS-CoV-2 NSP10 = 0.0018 | SARS-CoV-2 NSP12 = 0.0319 | SARS-CoV-2 NSP13 = -0.0805 | SARS-CoV-2 NSP14 = -0.183 | SARS-CoV-2 NSP15 = -0.00726 | SARS-CoV-2 NSP16 = 0.117 | SARS-CoV-2 NSP2 = -0.19 | SARS-CoV-2 NSP5 = -0.00498 | SARS-CoV-2 NSP6 = -0.0233 | SARS-CoV-2 NSP7 = -0.0882 | SARS-CoV-2 NSP8 = 0.0522 | SARS-CoV-2 NSP9 = -0.0656 | SARS-CoV-2 ORF10 = 0.0117 | SARS-CoV-2 ORF3A -0.149 | SARS-CoV-2 ORF3B 0.0351 | SARS-CoV-2 ORF6 = -0.0162 | SARS-CoV-2 ORF7A -0.011 | SARS-CoV-2 ORF7B -0.0255 | SARS-CoV-2 ORF8 = -0.0351 | SARS-CoV-2 ORF9B -0.0778 | [1] 0.0241 | SARS-CoV-2 S 0.0342

B3: EPHA8, P29322 (protein)
chain: MAPARGRLPPALWVVTAAAAAATCVSAARGEVNLLDTSTIHGDWGWLTYPAHGWDSINEVDESFQPIHTYQVCNVMSPNQNNWLRTSWVPRDGARRVYAEIKFTLRDCNSMPGVLGTCKETFNLYYLESDRDLGASTQESQFLKIDTIAADESFTGADLGVRRLKLNTEVRSVGPLSKRGFYLAFQDIGACLAILSLRIYYKKCPAMVRNLAAFSEAVTGADSSSLVEVRGQCVRHSEERDTPKMYCSAEGEWLVPIGKCVCSAGYEERRDACVACELGFYKSAPGDQLCARCPPHSHSAAPAAQACHCDLSYYRAALDPPSSACTRPPSAPVNLISSVNGTSVTLEWAPPLDPGGRSDITYNAVCRRCPWALSRCEACGSGTRFVPQQTSLVQASLLVANLLAHMNYSFWIEAVNGVSDLSPEPRRAAVVNITTNQAAPSQVVVIRQERAGQTSVSLLWQEPEQPNGIILEYEIKYYEKDKEMQSYSTLKAVTTRATVSGLKPGTRYVFQVRARTSAGCGRFSQAMEVETGKPRPRYDTRTIVWICLTLITGLVVLLLLLICKKRHCGYSKAFQDSDEEKMHYQNGQAPPPVFLPLHHPPGKLPEPQFYAEPHTYEEPGRAGRSFTREIEASRIHIEKIIGSGDSGEVCYGRLRVPGQRDVPVAIKALKAGYTERQRRDFLSEASIMGQFDHPNIIRLEGVVTRGRLAMIVTEYMENGSLDTFLRTHDGQFTIMQLVGMLRGVGAGMRYLSDLGYVHRDLAARNVLVDSNLVCKVSDFGLSRVLEDDPDAAYTTTGGKIPIRWTAPEAIAFRTFSSASDVWSFGVVMWEVLAYGERPYWNMTNRDVISSVEEGYRLPAPMGCPHALHQLMLDCWHKDRAQRPRFSQIVSVLDALIRSPESLRATATVSRCPPPAFVRSCFDLRGGSGGGGGLTVGDWLDSIRMGRYRDHFAAGGYSSLGMVLRMNAQDVRALGITLMGHQKKILGSIQTMRAQLTSTQGPRRHL
inactive: SARS-CoV-2 M 0.0653 | SARS-CoV-2 NSP1 = 0.0744 | SARS-CoV-2 NSP10 = 0.0229 | SARS-CoV-2 NSP12 = -0.00895 | SARS-CoV-2 NSP13 = 0.0113 | SARS-CoV-2 NSP14 = 0.131 | SARS-CoV-2 NSP2 = -0.135 | SARS-CoV-2 NSP4 = 0.0481 | SARS-CoV-2 NSP5 = -0.036 | SARS-CoV-2 NSP6 = 0.0476 | SARS-CoV-2 NSP7 = 0.00287 | SARS-CoV-2 NSP8 = 6.9e-05 | SARS-CoV-2 ORF10 = 0.0465 | SARS-CoV-2 ORF3B 0.0514 | SARS-CoV-2 ORF6 = 0.0601 | SARS-CoV-2 ORF7A -0.0223 | SARS-CoV-2 ORF7B 0.101 | SARS-CoV-2 ORF8 = 0.044 | SARS-CoV-2 ORF9B 0.00608 | SARS-CoV-2 S -0.118

B4: CMIP, Q8IY22 (protein)
chain: MDVTSSSGGGGDPRQIEETKPLLGGDVSAPEGTKMGAVPCRRALLLCNGMRYKLLQEGDIQVCVIRHPRTFLSKILTSKFLRRWEPHHLTLADNSLASATPTGYMENSVSYSAIEDVQLLSWENAPKYCLQLTIPGGTVLLQAANSYLRDQWFHSLQWKKKIYKYKKVLSNPSRWEVVLKEIRTLVDMALTSPLQDDSINQAPLEIVSKLLSENTNLTTQEHENIIVAIAPLLENNHPPPDLCEFFCKHCRERPRSMVVIEVFTPVVQRILKHNMDFGKCPRLRLFTQEYILALNELNAGMEVVKKFIQSMHGPTGHCPHPRVLPNLVAVCLAAIYSCYEEFINSRDNSPSLKEIRNGCQQPCDRKPTLPLRLLHPSPDLVSQEATLSEARLKSVVVASSEIHVEVERTSTAKPALTASAGNDSEPNLIDCLMVSPACSTMSIELGPQADRTLGCYVEILKLLSDYDDWRPSLASLLQPIPFPKEALAHEKFTKELKYVIQRFAEDPRQEVHSCLLSVRAGKDGWFQLYSPGGVACDDDGELFASMVHILMGSCYKTKKFLLSLAENKLGPCMLLALRGNQTMVEILCLMLEYNIIDNNDTQLQIISTLESTDVGKRMYEQLCDRQRELKELQRKGGPTRLTLPSKSTDADLARLLSSGSFGNLENLSLAFTNVTSACAEHLIKLPSLKQLNLWSTQFGDAGLRLLSEHLTMLQVLNLCETPVTDAGLLALSSMKSLCSLNMNSTKLSADTYEDLKAKLPNLKEVDVRYTEAW
inactive: SARS-CoV-2 M 0.0956 | SARS-CoV-2 N -0.451 | SARS-CoV-2 NSP1 = -0.176 | SARS-CoV-2 NSP10 = -0.0659 | SARS-CoV-2 NSP12 = -0.0294 | SARS-CoV-2 NSP13 = 0.0315 | SARS-CoV-2 NSP14 = -0.693 | SARS-CoV-2 NSP16 = -0.371 | SARS-CoV-2 NSP2 = -0.419 | SARS-CoV-2 NSP6 = 0.0636 | SARS-CoV-2 NSP7 = 0.00602 | SARS-CoV-2 NSP8 = -0.044 | SARS-CoV-2 ORF10 = 0.0501 | SARS-CoV-2 ORF3A -0.102 | SARS-CoV-2 ORF3B 0.102 | SARS-CoV-2 ORF6 = 0.0185 | SARS-CoV-2 ORF7A -0.157 | SARS-CoV-2 ORF8 = 0.0125 | SARS-CoV-2 ORF9B 0.0974 | [1] 0.0181 | SARS-CoV-2 S 0.0508
